Consider 56 sequences from the supplement of paper PMC11417369.

± gives the standard deviation of the averaged measurements. Some of the results follow.

The experiment relates to PfAP2-I AP2 domain 3 (GST-tagged). As to the kind of experiment: gcPBM binding intensity (ln(normalized median fluorescence intensity)); higher = stronger DNA binding. A digest of the protocol: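 For binding intensity, the highest Masliner-normalised natural-log median intensity across replicate spots of either probe orientation was taken. Protein bound to the array was stained with Alexa488 anti-GST antibody and scanned at 488 nm. The protein, GST-tagged P. falciparum DNA-binding domains from E. coli at about 25 μg on average, had been applied for 1 h to an Agilent 4 × 180k array of primer-extended double-stranded 36-bp intergenic genomic probes and negative controls.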
Turning to “TATATATATATATAATGTACATATAATATATTTATT [XGTACX_site7892]”, the “gcPBM binding intensity (ln)” value is 9.21 ± 0.33.

As for “TAAATATATTAATACACACACGATATGTACAAAAAA [CACACA_site540]”, the “gcPBM binding intensity (ln)” value came to 8.1 ± 0.56.

As for “GCTTAATGTCATATATCACACATGAAAATATATATA [CACACA_site5089]”, the “gcPBM binding intensity (ln)” value worked out at 8 ± 0.55.

Regarding “TACGTATTTTAATATTTACACACTTATTTTTTATAT [CACACA_site7924]”, the “gcPBM binding intensity (ln)” value is 7.89 ± 0.43.

In the case of “GGACAACAAACAAACACACACAAAAAAAAAATAAAA [CACACA_site3791]”, the “gcPBM binding intensity (ln)” value turned out to be 7.91 ± 0.28.

Regarding “TTGTTTCTTTTTTTTTGTACATATATATTGTATATT [XGTACX_site7602]”, the “gcPBM binding intensity (ln)” value stood at 8.03 ± 0.8.

In the case of “AATTTTTCAAATTAATGTACTTGTTATAAATTGTAA [XGTACX_site5428]”, the “gcPBM binding intensity (ln)” value worked out at 7.54 ± 0.35.

As for “GGCAATACATAATAATGTACATAATTATATAATATT [XGTACX_site3739]”, the “gcPBM binding intensity (ln)” value was 7.71 ± 0.39.

Consider “TATATCTGTTTATATTGTACACATATATATATATAT [XGTACX_site714]”, for which the “gcPBM binding intensity (ln)” value came to 9.36 ± 0.61.

For “TACAAACACCCATATACACACAAAAAAAAAATAAAA [CACACA_site5421]”, the “gcPBM binding intensity (ln)” value stood at 7.78 ± 0.31.

For the sequence “AGAAAAACTTATATGATACACACGATAAACAAAATA [CACACA_site1038]”, the “gcPBM binding intensity (ln)” value came to 7.8 ± 0.6.

“TATATAATATATATATGTACATATATATATGTTTTT [XGTACX_site3347]”: the “gcPBM binding intensity (ln)” value stood at 7.62 ± 0.23.

Turning to “TATACATAAAACAGTTCACACATTGTATGAATATAT [CACACA_site4751]”, the “gcPBM binding intensity (ln)” value turned out to be 7.53 ± 0.59.

Take “GTGCAAAATATTTTTACACACAAATTCTTACAACAG [CACACA_site7556]”: the “gcPBM binding intensity (ln)” value was determined as 9.98 ± 0.57.

Consider “ATATCTATGTTTATCTCGAATAACTTAAAAAATTAT [CACACA_negctrl_site1131]”, for which the “gcPBM binding intensity (ln)” value was 7.58 ± 0.58.

Regarding “TTTATACAAACAACTTTATATTAATGTTTAACGGAG [GTGCAC_negctrl_site396]”, the “gcPBM binding intensity (ln)” value turned out to be 7.6 ± 0.42.

“AAGGCAAACAAACACACACACATATATACATATATA [CACACA_site2122]”: the “gcPBM binding intensity (ln)” value was 8 ± 0.38.

For the sequence “TCTTTCTAAAGATGTAGTACAAAATAAATATAATAT [XGTACX_site6564]”, the “gcPBM binding intensity (ln)” value amounted to 8.07 ± 0.54.

In the case of “TAATATGCTCATGTAACACACATTTGCATATTTTTC [CACACA_site1357]”, the “gcPBM binding intensity (ln)” value was found to be 7.58 ± 0.53.

Turning to “TTATCACACCTTTTTTGTACGAAATAAAAAAAAAAA [XGTACX_site5564]”, the “gcPBM binding intensity (ln)” value is 8.19 ± 0.49.

In the case of “GATATTATGTGTTTGGTATTTTTTGATGTTGGTAGG [XGTACX_negctrl_site563]”, the “gcPBM binding intensity (ln)” value turned out to be 8.01 ± 0.35.

With “TAGAACAAATAAAACACACACATATAAATATAGATG [CACACA_site7325]”, the “gcPBM binding intensity (ln)” value is 7.65 ± 0.73.

Take “ACATTAAAAAAAAAATGTACATAAATATTTTTCCTT [XGTACX_site4361]”: the “gcPBM binding intensity (ln)” value was found to be 7.63 ± 0.65.

Take “AATTTTATTCATTGAGCACACAAAATAAATTATCAA [CACACA_site9079]”: the “gcPBM binding intensity (ln)” value turned out to be 8.27 ± 0.43.

Consider “ATCTTTTATATAAAATGTACAGAGTTTGAAAGAATA [XGTACX_site8826]”, for which the “gcPBM binding intensity (ln)” value stood at 7.8 ± 0.48.

For the sequence “GTATTACAACGACACACACACCTATATATCATAGTA [CACACA_site7877]”, the “gcPBM binding intensity (ln)” value stood at 8.13 ± 0.57.

Consider “ATACAAATTGTTTAAAGTACAAATTACACCTCTTAA [XGTACX_site6888]”, for which the “gcPBM binding intensity (ln)” value was 7.67 ± 0.68.

For the sequence “TATATACACATATATAAACACACAAAAAAAAAAAAA [CACACA_site8626]”, the “gcPBM binding intensity (ln)” value is 7.95 ± 0.53.

As to “TGTAAATATATATATACACACACACCGAAGCAATAG [CACACA_site8960]”, the “gcPBM binding intensity (ln)” value came out at 8.33 ± 0.35.

In the case of “CATACAGACATACATACACACATACATACAGACATA [CACACA_site6996]”, the “gcPBM binding intensity (ln)” value came to 7.91 ± 0.37.

Take “TAAAAAGGAAGACACACACACACATATATAAATATA [CACACA_site7657]”: the “gcPBM binding intensity (ln)” value stood at 7.72 ± 0.44.

For “GTATATCACACATTTGCATGTTGTCAATAGTTTATC [TGCATGCA_site134]”, the “gcPBM binding intensity (ln)” value was determined as 8.03 ± 0.66.

“TTTTTTTTTTTTTAAACATGCATATTAATATTATAT [TGCATGCA_site820]”: the “gcPBM binding intensity (ln)” value turned out to be 7.99 ± 0.64.

Turning to “AAAGGCTATCTTATATACTCCTAAAACGCGAACGTA [CACACA_negctrl_site396]”, the “gcPBM binding intensity (ln)” value came out at 7.45 ± 0.64.

Consider “AATATATAAATATTGTGTACTTATTTTTTTATATGT [XGTACX_site4377]”, for which the “gcPBM binding intensity (ln)” value came to 7.935 ± 0.049.

Consider “ATAAATTCTATGTATACACACATATAAAATATAGAT [CACACA_site7296]”, for which the “gcPBM binding intensity (ln)” value stood at 7.91 ± 0.49.

Take “ATTATATACATATATGCACACAAAAAAATATATATT [CACACA_site8508]”: the “gcPBM binding intensity (ln)” value came out at 9.04 ± 0.12.

Consider “TTTTTTGTTATTAAAAGTACATTATATGCTAGTTAA [XGTACX_site8747]”, for which the “gcPBM binding intensity (ln)” value was determined as 7.79 ± 0.29.

With “TTAAAAATATTATGTACACACATTTGAGATATTTGT [CACACA_site6953]”, the “gcPBM binding intensity (ln)” value turned out to be 7.72 ± 0.59.

In the case of “TGAAATAAAATTTATACACACTTGCTAAATGATCAT [CACACA_site4265]”, the “gcPBM binding intensity (ln)” value is 7.68 ± 0.62.

Regarding “TATCATTAATTTACATGTACATAAATGAATGTTTAT [XGTACX_site5608]”, the “gcPBM binding intensity (ln)” value stood at 7.59 ± 0.38.

In the case of “TTCGTAATTTATATCACACACATATATCTATAATAA [CACACA_site7458]”, the “gcPBM binding intensity (ln)” value amounted to 8.01 ± 0.53.

Regarding “TTATTGCATATTTACACACGTACTAATTTAAACAAG [CACACA_site971]”, the “gcPBM binding intensity (ln)” value worked out at 8.79 ± 0.38.

Take “AGAATATTTAAAAAAGGTACACAAAAACCAAAATAA [XGTACX_site8569]”: the “gcPBM binding intensity (ln)” value worked out at 8.09 ± 0.6.

In the case of “ATATATGACAAATGTAGTACAAATTATTGTATCATA [XGTACX_site3675]”, the “gcPBM binding intensity (ln)” value was 7.67 ± 0.43.

On to “TATTAATACAGACACACACACACACCCAATAAAATA [CACACA_site243]”, for which the “gcPBM binding intensity (ln)” value was determined as 8.18 ± 0.2.

Take “ATAAATTCATATATGAGTACTAAAAATATCTTTTTC [XGTACX_site5541]”: the “gcPBM binding intensity (ln)” value was found to be 7.61 ± 0.45.

Take “CAATGGTCATTTAGTTGTACTTAATTTTAAATCAAA [XGTACX_site4075]”: the “gcPBM binding intensity (ln)” value amounted to 7.64 ± 0.26.

Consider “AAAAAAAACGAACACACACACATTCAATATAAAACA [CACACA_site6170]”, for which the “gcPBM binding intensity (ln)” value is 7.8 ± 0.52.

Turning to “GTAAGCACACATAGTTGTACATTAATAAAAATAAAT [XGTACX_site5876]”, the “gcPBM binding intensity (ln)” value turned out to be 7.89 ± 0.34.

Consider “ATATGTATGAAGTGTACACATATATTGTATTTTCTT [CACACA_site5503]”, for which the “gcPBM binding intensity (ln)” value turned out to be 7.96 ± 0.45.

In the case of “TTCCTATAAAAAAACACACACATATAAATATATATA [CACACA_site2318]”, the “gcPBM binding intensity (ln)” value turned out to be 7.76 ± 0.72.

For “TACAATTTAATATATACACACAAATAAATTATGCTT [CACACA_site856]”, the “gcPBM binding intensity (ln)” value was 7.49 ± 0.45.

Turning to “AACAATTTATATAAAGCACACATGGGAAGGAAATAC [CACACA_site1712]”, the “gcPBM binding intensity (ln)” value was found to be 9.78 ± 0.16.

As to “AAATAAATGTTATGCATACACACTTTATACCTATTT [CACACA_site3779]”, the “gcPBM binding intensity (ln)” value was 8.02 ± 0.91.

As for “TCTTTTATGTTTGTTTTTCCCTTTTTTTATGTTCCC [CACACA_negctrl_site1722]”, the “gcPBM binding intensity (ln)” value was 7.72 ± 0.7.
